Our source for the binding signal values is PMC12820563, “FoxP3 forms a head-to-head dimer in vivo and stabilizes its multimerization on adjacent microsatellites”.

The list shows a part of the results.

The test addresses T1, MBP-FoxP1dN (Mus musculus, UniProt P58462 326-579).
T1 sequence: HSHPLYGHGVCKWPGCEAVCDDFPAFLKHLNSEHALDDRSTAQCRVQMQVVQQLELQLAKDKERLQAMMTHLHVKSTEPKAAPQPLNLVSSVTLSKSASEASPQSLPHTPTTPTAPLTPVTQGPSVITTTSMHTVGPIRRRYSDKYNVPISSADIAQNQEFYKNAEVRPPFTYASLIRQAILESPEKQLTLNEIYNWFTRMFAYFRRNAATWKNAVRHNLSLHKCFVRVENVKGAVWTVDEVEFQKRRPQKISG
Nature of the test: PD-seq (MBP pull-down with sequencing); 20 mM Tris-HCl pH 7.5, 100 mM NaCl, 1.5 mM MgCl2, 0.4 uM protein, 0.1 uM dsDNA library, 30 min, room temperature, amylose pull-down; high values mean tight binding. Particulars: protein: recombinant; tags: His6-MBP; chain copies: 2; dsDNA, one strand shown. Summed up: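 Binding is the reads-per-million enrichment of pull-down relative to input, pooled across replicates. For this, 0.4 µM His6-MBP-tagged mouse FoxP3 or FoxP1 fragment lacking the N-terminus, made in E. coli, was incubated with 0.1 µM Klenow-filled double-stranded degenerate DNA library for 30 min at room temperature in Tris pH 7.5 buffer with NaCl and MgCl2. Complexes bound to amylose resin were washed three times before proteinase K released the DNA for PCR barcoding and Illumina sequencing.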
Regarding “GATGATTGTTCTCCCAGCTGATGAATTCTGGGGATCGAGTAAACAAATTTTCCTAATCTTTCTGTTCAAGCGCCATCTAC”, the binding signal is 0.833 RPM ratio (pull-down/input).
Under “GATGATTGTTCTCCCAGCTGATGAATTCTGAGTTTCGAGTAAACAAATTTTCCTAATCTTTCTGTTCAAGCGCCATCTAC” stands 0.869 RPM ratio (pull-down/input).
Under “GATGATTGTTCTCCCAGCTGATGAATTTTCCGTCTCGAGTAAACAAATTTTCCTAATCTTTCTGTTCAAGCGCCATCTAC” stands 0.878 RPM ratio (pull-down/input).
The figure for “GATGATTGTTCTCCCAGCTGATGAATTTTACGGCTCGAGTAAACAAATTTTCCTAATCTTTCTGTTCAAGCGCCATCTAC” is 0.833 RPM ratio (pull-down/input); for “GATGATTGTTCTCCCAGCTGATGAATTTAAGAATTCGAGTAAACAAATTTTCCTAATCTTTCTGTTCAAGCGCCATCTAC” it is 0.81 RPM ratio (pull-down/input); for “GATGATTGTTCTCCCAGCTGATGAATTATCATTTTCGAGTAAACAAATTTTCCTAATCTTTCTGTTCAAGCGCCATCTAC” it is 1.32 RPM ratio (pull-down/input).
For “GATGATTGTTCTCCCAGCTGATGAATTCCATGGGTCGAGTAAACAAATTTTCCTAATCTTTCTGTTCAAGCGCCATCTAC”, the binding signal is 0.733 RPM ratio (pull-down/input).
For “GATGATTGTTCTCCCAGCTGATGAATTACAGGCGTCGAGTAAACAAATTTTCCTAATCTTTCTGTTCAAGCGCCATCTAC”, the binding signal is 1 RPM ratio (pull-down/input).
Turning to “GATGATTGTTCTCCCAGCTGATGAATTAAATGTATCGAGTAAACAAATTTTCCTAATCTTTCTGTTCAAGCGCCATCTAC”, the binding signal was 1.4 RPM ratio (pull-down/input).
Under “GATGATTGTTCTCCCAGCTGATGAATTAAAATATTCGAGTAAACAAATTTTCCTAATCTTTCTGTTCAAGCGCCATCTAC” stands 1.1 RPM ratio (pull-down/input); under “GATGATTGTTCTCCCAGCTGATGAATTTAAAACATCGAGTAAACAAATTTTCCTAATCTTTCTGTTCAAGCGCCATCTAC”, 1.37 RPM ratio (pull-down/input).
The figure for “GATGATTGTTCTCCCAGCTGATGAATTTCCGTCTTCGAGTAAACAAATTTTCCTAATCTTTCTGTTCAAGCGCCATCTAC” is 0.917 RPM ratio (pull-down/input); for “GATGATTGTTCTCCCAGCTGATGAATTGCACTTTTCGAGTAAACAAATTTTCCTAATCTTTCTGTTCAAGCGCCATCTAC” it is 1.55 RPM ratio (pull-down/input); for “GATGATTGTTCTCCCAGCTGATGAATTTTACAGTTCGAGTAAACAAATTTTCCTAATCTTTCTGTTCAAGCGCCATCTAC” it is 0.94 RPM ratio (pull-down/input).
Consider “GATGATTGTTCTCCCAGCTGATGAATTTAATCTATCGAGTAAACAAATTTTCCTAATCTTTCTGTTCAAGCGCCATCTAC”, for which the binding signal was 0.877 RPM ratio (pull-down/input).
“GATGATTGTTCTCCCAGCTGATGAATTACCCCTTTCGAGTAAACAAATTTTCCTAATCTTTCTGTTCAAGCGCCATCTAC”: the binding signal is 0.932 RPM ratio (pull-down/input).
Under “GATGATTGTTCTCCCAGCTGATGAATTTGACTTATCGAGTAAACAAATTTTCCTAATCTTTCTGTTCAAGCGCCATCTAC” stands 0.908 RPM ratio (pull-down/input); under “GATGATTGTTCTCCCAGCTGATGAATTATCACGGTCGAGTAAACAAATTTTCCTAATCTTTCTGTTCAAGCGCCATCTAC”, 0.984 RPM ratio (pull-down/input); under “GATGATTGTTCTCCCAGCTGATGAATTGATGAACTCGAGTAAACAAATTTTCCTAATCTTTCTGTTCAAGCGCCATCTAC”, 0.906 RPM ratio (pull-down/input).
Under “GATGATTGTTCTCCCAGCTGATGAATTTCTGGTTTCGAGTAAACAAATTTTCCTAATCTTTCTGTTCAAGCGCCATCTAC” stands 0.937 RPM ratio (pull-down/input).
Regarding “GATGATTGTTCTCCCAGCTGATGAATTGCATCTTTCGAGTAAACAAATTTTCCTAATCTTTCTGTTCAAGCGCCATCTAC”, the binding signal is 1.83 RPM ratio (pull-down/input).
Under “GATGATTGTTCTCCCAGCTGATGAATTAAATTTCTCGAGTAAACAAATTTTCCTAATCTTTCTGTTCAAGCGCCATCTAC” stands 0.864 RPM ratio (pull-down/input).
With “GATGATTGTTCTCCCAGCTGATGAATTGTACGTATCGAGTAAACAAATTTTCCTAATCTTTCTGTTCAAGCGCCATCTAC”, the binding signal was 1.14 RPM ratio (pull-down/input).
“GATGATTGTTCTCCCAGCTGATGAATTGCATTAATCGAGTAAACAAATTTTCCTAATCTTTCTGTTCAAGCGCCATCTAC”: the binding signal is 1.47 RPM ratio (pull-down/input).
The figure for “GATGATTGTTCTCCCAGCTGATGAATTTCACAACTCGAGTAAACAAATTTTCCTAATCTTTCTGTTCAAGCGCCATCTAC” is 0.936 RPM ratio (pull-down/input); for “GATGATTGTTCTCCCAGCTGATGAATTTGGTCTTTCGAGTAAACAAATTTTCCTAATCTTTCTGTTCAAGCGCCATCTAC” it is 0.928 RPM ratio (pull-down/input); for “GATGATTGTTCTCCCAGCTGATGAATTTCAATTCTCGAGTAAACAAATTTTCCTAATCTTTCTGTTCAAGCGCCATCTAC” it is 0.85 RPM ratio (pull-down/input).
On to “GATGATTGTTCTCCCAGCTGATGAATTAGTTCTATCGAGTAAACAAATTTTCCTAATCTTTCTGTTCAAGCGCCATCTAC”, for which the binding signal was 0.895 RPM ratio (pull-down/input).
Take “GATGATTGTTCTCCCAGCTGATGAATTCATCATCTCGAGTAAACAAATTTTCCTAATCTTTCTGTTCAAGCGCCATCTAC”: the binding signal was 0.841 RPM ratio (pull-down/input).
Under “GATGATTGTTCTCCCAGCTGATGAATTGAGGGCGTCGAGTAAACAAATTTTCCTAATCTTTCTGTTCAAGCGCCATCTAC” stands 0.822 RPM ratio (pull-down/input); under “GATGATTGTTCTCCCAGCTGATGAATTCACAAGCTCGAGTAAACAAATTTTCCTAATCTTTCTGTTCAAGCGCCATCTAC”, 0.878 RPM ratio (pull-down/input).
